Consider 110 compounds from PubChem BioAssay AID1240 (Sanford-Burnham Center for Chemical Genomics, 2008).

Values joined by “and” are separate entries in the source; they are usually repeats but may differ in a detail not shown here. Equal values may be shown once. Among all 50,000 compounds or so, about 800 (1.6%) showed an effect of 50% or more. Some of the results follow.

The target in this test is Bcl-2-like protein 10 (Homo sapiens) (UniProt Q9HD36). Briefly: Phenotype converters, Bcl-B/TR3 peptide binding displacement, primary biochemical FP (AID 1240).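 Note: 0% = Bcl-B with tracer peptide and DMSO and 100% = tracer peptide lacking Bcl-B.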 To be noted: GST-Bcl-B / FITC-TR3 peptide fluorescence polarization; stronger effect = higher value; compound at 3.75 mg/L.
UniProt Q9HD36, sequence (Q9HD36 whole entry, looked up): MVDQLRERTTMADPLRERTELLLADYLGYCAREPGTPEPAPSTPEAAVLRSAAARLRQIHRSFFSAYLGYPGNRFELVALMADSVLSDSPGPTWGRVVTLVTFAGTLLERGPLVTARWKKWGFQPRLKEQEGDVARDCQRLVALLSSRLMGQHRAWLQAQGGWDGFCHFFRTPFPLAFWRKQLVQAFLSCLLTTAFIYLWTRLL
Consider `CCOC(=O)C(C)(C)ON1CC1(C(F)(F)F)C(F)(F)F` (stereo not given), for which the displacement was -1.7%. For `O=Cc1cn(Cc2ccc(Br)cc2)c2ccccc12`, the displacement turned out to be 0.2%. Next, `NCC(O)CNc1ccc([N+](=O)[O-])c2cccnc12` (stereo not given): -7.7%; `CCC(C)N1CCN(C(=O)COc2ccc(Cl)cc2)CC1` (stereo not given): 9.2%; `Cc1c(Br)c([N+](=O)[O-])nn1CC(=O)Nc1ccc(Cl)cc1C(=O)c1ccccc1`: -10.5%. `COc1ccc(C2c3c(c4ccccc4oc3=O)Oc3c2c(=O)oc2ccccc32)cc1COc1ccccn1`: the displacement was -2.4%.

Consider `COc1ccccc1CCNCc1ccccc1Cl`, for which the displacement was determined as 3.9%.

Regarding `COC(C(=O)Nc1ccc(Br)cc1C(=O)c1ccccc1)c1ccccc1` (stereo not given), the displacement is -17.4%.

`COc1cc(C2c3c(c4ccccc4oc3=O)Oc3c2c(=O)oc2ccccc32)cc(OC)c1OC`: the displacement is 11.8%.

For the compound `O=C(Nc1ccc(Cl)cc1C(=O)c1ccccc1)c1cc2ccccc2o1`, the displacement is 1.6%.

As to `O=C(Cc1ccccc1)N1CCN(Cc2ccco2)CC1`, the displacement was -7.4%. For `O=c1c2ccccc2nc(-c2ccccc2F)n1-c1cccc(Cl)c1`, the displacement was -2.3%. As for `O=c1c2ccccc2nc(-c2ccc(Cl)cc2Cl)n1-c1ccc(Br)cn1`, the figure is -24.1%; as for `CCN(CC)C(=O)c1ccc(NC(=O)C(F)(F)F)cc1`, -10.4%; as for `O=[N+]([O-])c1ccc(N2CCNCC2)cc1NCCc1ccccc1`, 12.1%. As for `COc1ccccc1CCNCc1ccc(Cl)cc1`, the figure is -3.5%; as for `O=c1oc2ccccc2c2c1C(c1ccc(Br)cc1)c1c(c3ccccc3oc1=O)O2`, 13.7%; as for `Cc1ccc(-n2c(-c3ccncc3)nc3ccccc3c2=O)cc1`, 2%. As for `O=C1NC(=S)NC(=O)C1=Cc1ccc(-c2cc(Cl)c([N+](=O)[O-])cc2Cl)o1`, the figure is 19.3%; as for `O=[N+]([O-])N=C1NCN(c2ccc(Cl)cc2)CN1`, -1.2%; as for `O=C(NC(Oc1ccccc1Br)C(Cl)(Cl)Cl)c1ccco1` (stereo not given), 14.1%. Take `O=C(COc1ccccc1)N1CCN(Cc2ccccc2)CC1`: the displacement amounted to 7.1%. As for `CCCCCn1c(=O)c(C(=O)Nc2nc(C)cs2)c(O)c2ccccc21`, the figure is 5.2%; as for `O=C1NC(=S)N(c2ccc(Cl)cc2)C(=O)/C1=C/c1ccc(-c2ccccc2C(=O)O)o1`, 1.9%. Regarding `CC1(C)C2([N+](=O)[O-])CNCC1([N+](=O)[O-])CNC2`, the displacement is -0.3%. For the compound `Cc1ccc(C(=O)C(C)(C)NO)cc1`, the displacement came out at 14.4%.

Turning to `Cc1cc(OCC(=O)c2ccccc2)c2c3c(c(=O)oc2c1)CCC3`, the displacement was found to be 9.7%. On to `CC(=O)OC1CCC2(C)C(=CCC3C4C/C(=C\c5ccc([N+](=O)[O-])cc5)C(=O)C4(C)CCC32)C1` (stereo not given), for which the displacement came to 2.6%. As for `CN(C)c1ccc(/C=N/NC(=O)C(=O)NN/C(N)=N\[N+](=O)[O-])cc1`, the figure is -7.8%. As for `Cc1cc(C)nc(NS(=O)(=O)c2ccc(N=Cc3c(O)n(C)c(=O)n(C)c3=O)cc2)n1`, the figure is 15%; as for `COc1ccc(/C=C2\CC3C4CC=C5CC(O)CCC5(C)C4CCC3(C)C2O)cc1` (stereo not given), -6.9%. Consider `CCC1(CC)C(=O)N(C)C(=O)N(C)C1=O`, for which the displacement is 11.5%. As for `COP(=S)(OC)SCN1C(=O)c2ccccc2C1=O`, the figure is 10.9%; as for `O=Cc1cn(Cc2ccccc2Cl)c2ccccc12`, -1%; as for `Cc1nc2ccccc2c(=O)n1-c1ccncc1`, 16.4%. Next, `CC(C)OC1N/C(=N\[N+](=O)[O-])N(C)C1OC(C)C` (stereo not given): 0.8%. Next, `O=c1c2ccccc2nc(/C=C/c2cc(Br)ccc2O)n1-c1cccc([N+](=O)[O-])c1`: -14.1%.

Consider `CCCC(=O)c1ccc(N2CCNCC2)c(F)c1`, for which the displacement is -11%. Next, `CCc1ccc(CN2CCN(C(=O)COc3ccc4ccccc4c3)CC2)cc1`: -6.3%; `COC(=O)c1[nH]cnc1C(=O)Nc1ccc(Cl)cc1C(=O)c1ccccc1`: 12.7% and 8%. On to `C=C(C)c1cccc(C(C)(C)NC(=O)NC2CN3CCC2CC3)c1` (stereo not given), for which the displacement is -0.9%.

Take `CN1C(=O)NC(=O)/C(=C\c2ccc(C(=O)O)cc2)C1=O`: the displacement is 1.8%. Next, `Cc1c(C=O)c2ccccc2n1Cc1ccc(Cl)cc1`: -3.4%; `O=c1c2ccccc2nc(-c2ccccc2)n1-c1ccc(Br)cn1`: -8.5%. Next, `Cc1ccccc1N1C(=O)/C(=C/c2ccc(OCc3cccc(C(=O)O)c3)cc2)C(=O)NC1=S`: 10.3%; `COc1ccc(/C=C2\C(=O)C3CCN2CC3)c(OC)c1`: -5%.

As for `CN1C(=O)C(=Cc2ccc(-c3cc(C(=O)O)ccc3Cl)o2)C(=O)N(C)C1=O`, the displacement is -2.5%.

Regarding `CN(C)c1ccc(/C=C/c2nc3ccccc3c(=O)n2-c2ccccn2)cc1`, the displacement was -67%. Next, `CN1C(=O)NC(=O)/C(=C/c2ccc(-c3ccccc3[N+](=O)[O-])o2)C1=O`: 35.6%. Consider `O=C(Cc1ccccc1)N1CCN(C2CC3CCC2C3)CC1` (stereo not given), for which the displacement turned out to be 16.4%. Next, `COC(=O)C(c1ccccc1)N1CCCCCC1` (stereo not given): 5.2%; `CCC1(C)CC(CCNCc2ccc(N(C)C)cc2)(c2ccc(C)cc2)CCO1` (stereo not given): -11.1%; `O=C1NC(=O)C(=Cc2ccc(OCc3cccc(C(=O)O)c3)cc2)C(=O)N1`: 0.7%. In the case of `Cc1cc(/C=C2\C(=O)NC(=S)N(c3ccccc3F)C2=O)c(C)n1C`, the displacement amounted to 14.1%.

Take `CCC(=O)N1CC(=O)Nc2ccc(C)cc2C1c1ccccc1` (stereo not given): the displacement is -13.1%.

Turning to `CCOc1ccc(N2C(=O)NC(=O)/C(=C\c3ccc(Sc4nc5ccccc5[nH]4)o3)C2=O)cc1`, the displacement is 16.8%.

Regarding `O=[N+]([O-])c1ccc(N2CCNCC2)cc1NCCOc1ccccc1`, the displacement was found to be 10.8%. Next, `O=C(Cc1ccccc1)N1CCN(Cc2cccnc2)CC1`: 9.9%; `COc1ccc(C(c2c(O)c3ccccc3oc2=O)c2c(O)c3ccccc3oc2=O)cc1Cn1nc(C)c([N+](=O)[O-])c1C`: 6.5%; `Cn1c(O)c(C=NCCN2CCN(C(=O)c3ccccc3)CC2)c(=O)n(C)c1=O`: -3.2%. As for `c1ccc(C2CC3CC(c4ccco4)N2O3)cc1` (stereo not given), the figure is 8.3%; as for `COc1ccccc1N1C(=O)NC(=O)/C(=C\c2ccc(O)cc2)C1=O`, -2.1%; as for `C1CCC2CNCCN2CC1` (stereo not given), 4.8%. Next, `COc1ccc(CCNCc2cccc(Cl)c2)cc1OC`: -5.3%; `CN(C)CCC(=O)c1ccc(Cl)c(Cl)c1`: 7.5%; `O=c1c2ccccc2nc(/C=C\c2ccc(O)cc2)n1-c1ccc(O)cc1`: 17.7%. On to `C=CCN1C(=O)/C(=C\c2ccc(C)o2)C(=O)NC1=S`, for which the displacement was 12.6%. As for `CCC(=O)N1N=C2C3CCN(CC3)C2C1c1cccc([N+](=O)[O-])c1` (stereo not given), the figure is -4.2%; as for `CCOC(=O)c1c(NC(=O)C23CC4CC(CC(C4)C2)C3)sc2c1CCCC2`, 8.4%; as for `CN(C)c1ccc(/C=C2\C(=O)NC(=O)N(c3ccccc3Cl)C2=O)cc1`, 9.7%. Next, `CC12CCC3C(CC=C4CC(O)CCC43C)C1C/C(=C\c1ccc(OC(F)F)cc1)C2=O` (stereo not given): -20.9%; `CCOC(=O)c1c(C)n(CC(C)C)c2ccc(O)cc12`: 1.1%; `Cc1ccc(C)c(COc2cc(C)cc3oc(=O)c4c(c23)CCC4)c1`: 6.4%. Next, `CCC(C)N1CCN(Cc2ccccc2Br)CC1` (stereo not given): 5.8%; `C=CCN1C(=O)/C(=C\c2cccn2-c2ccc([N+](=O)[O-])cc2)C(=O)NC1=S`: 45.2%; `O=C(COc1ccc2ccccc2c1)N1CCN(Cc2ccc([N+](=O)[O-])cc2)CC1`: 13.8%. Consider `Cc1cc(C=C2C(=O)NC(=O)NC2=O)c(C)n1C`, for which the displacement is 2.4%. Next, `COc1ccc(-c2ccc(C=C3C(=O)NC(=S)NC3=O)o2)c([N+](=O)[O-])c1`: 34.1%. Consider `Nc1ccc(Br)cc1C(=O)c1ccc(F)cc1`, for which the displacement was -18.1%. As for `N#C/C(=C\c1ccccc1)C(=O)Nc1ccc([N+](=O)[O-])cc1C(=O)c1ccccc1`, the figure is -15.8%; as for `Cc1ccc(-n2c(SCCN3CCOCC3)nc3ccccc3c2=O)cc1`, 3%; as for `O=C(COc1ccccc1)N1CCN(Cc2ccc([N+](=O)[O-])cc2)CC1`, 4.4%. Next, `Cc1nc2ccccc2c(=O)n1-c1ccc(-c2ccccc2)cc1`: 2.1%; `CCCCn1c(=O)c(C(=O)Nc2ccc(Br)cc2)c(O)c2ccccc21`: 12.4%; `O=C(N/N=C1/CN2CCC1CC2)c1ccc(O)cc1`: 17.8%. For the compound `Cc1cc(C=C2C(=O)NC(=S)NC2=O)c(C)n1C`, the displacement amounted to 6.6%. Next, `C=CCSc1nc2ccccc2c(=O)n1-c1cccc(C)c1`: -3.4%; `CCCCn1c(=O)c(C(=O)Nc2cccc(O)c2)c(O)c2ccccc21`: -2.3%; `COc1cccc(CNCCc2ccccc2F)c1OC`: 9.6%. Consider `c1cc(CN2CCN(C3C4CC5CC(C4)CC3C5)CC2)ccn1` (stereo not given), for which the displacement was -7.9%. As for `Cc1c(Cl)c([N+](=O)[O-])nn1CC(=O)Nc1ccc(Cl)cc1C(=O)c1ccccc1`, the figure is 5.3%; as for `CN1CCN(c2c(Cl)cccc2[N+](=O)[O-])CC1`, 3.8%; as for `O=C1/C(=C/c2ccccc2O)N2CCC1CC2`, 11.6%. On to `Cc1cc(C)cc(N2C(=O)NC(=O)/C(=C\c3cc(C)n(C)c3C)C2=O)c1`, for which the displacement was 90.5%. Next, `COc1ccc(Br)cc1CN1CCN(C(C)C)CC1`: -17.1%. As for `Cn1cccc1CN1CCN(C(=O)COc2ccccc2)CC1`, the figure is -12.3%; as for `COc1ccc(CN2CCN(Cc3ccccc3Br)CC2)cc1`, 3.8%. Next, `CSc1ccc(CN2CCN(C(=O)COc3ccc(Cl)cc3)CC2)cc1`: 14.5%.

Turning to `O=[N+]([O-])c1ccc(NCCOc2ccccc2F)c2cccnc12`, the displacement is -2.1%. Take `CN1C(=O)NC(=O)/C(=C/c2cc(Br)cc(Cl)c2O)C1=O`: the displacement is -7.2%.

For the compound `O=C1NC(=O)N(c2ccccc2)C(=O)/C1=C/c1ccoc1`, the displacement came to 15.5%. As for `O=C1NC(=S)NC(=O)C1=Cc1ccccc1OS(=O)(=O)c1ccc2ccccc2c1`, the figure is 1.4%; as for `COC(=O)c1ccc(-c2ccc(C=C3C(=O)NC(=S)NC3=O)o2)cc1`, -1.1%; as for `CN=C1CN=C(c2ccccc2)c2cc(Cl)ccc2N1`, -5.3%. As for `CCC1(CC)C(=O)NC(=O)N(C(=O)c2ccccc2Br)C1=O`, the figure is 11.2%; as for `C1CCC2(C1)NN2CCN1NC12CCCC2` (stereo not given), 4.1%; as for `CC1CN(c2ccc([N+](=O)[O-])cc2)CCN1` (stereo not given), 0.2%.

For `COc1cccc(CN(CCc2ccc3c(c2)OCO3)Cc2cccc(OC)c2)c1`, the displacement is 2.5%. As for `Clc1ccccc1CNCCc1c[nH]c2ccccc12`, the figure is 2%. As for `COc1ccc(CN2CCN(Cc3cccc(C)c3)CC2)cc1Br`, the figure is 1.1%.
